From patent US12116397B2, “IL-IR-I binding polypeptide” (Swedish Orphan Biovitrum AB (publ), priority 2017, dated 2024)

T1: hIL-1R-I (Homo sapiens, UniProt P14778)
T1 construct: purchased R&D Systems 269-1R/CF
T1 sequence (P14778 18-569): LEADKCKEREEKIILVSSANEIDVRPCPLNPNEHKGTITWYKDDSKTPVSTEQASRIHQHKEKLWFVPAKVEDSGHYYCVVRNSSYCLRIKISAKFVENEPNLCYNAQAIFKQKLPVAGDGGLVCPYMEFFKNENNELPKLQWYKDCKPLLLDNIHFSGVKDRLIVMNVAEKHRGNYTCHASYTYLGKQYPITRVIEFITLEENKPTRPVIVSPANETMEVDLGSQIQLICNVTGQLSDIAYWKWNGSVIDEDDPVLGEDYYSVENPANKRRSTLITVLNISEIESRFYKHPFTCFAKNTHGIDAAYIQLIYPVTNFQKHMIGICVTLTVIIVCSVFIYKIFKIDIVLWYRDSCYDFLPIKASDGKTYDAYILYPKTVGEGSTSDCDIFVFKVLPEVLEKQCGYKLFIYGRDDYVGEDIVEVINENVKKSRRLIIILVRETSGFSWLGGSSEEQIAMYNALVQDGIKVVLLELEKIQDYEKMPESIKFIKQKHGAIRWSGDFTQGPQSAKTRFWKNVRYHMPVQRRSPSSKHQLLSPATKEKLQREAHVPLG


Assays:
cynomolgus IL-1R-I = experiment: Biolayer interferometry (BLI) kinetic analysis of Z-Fc fusion proteins, cynomolgus IL-1R-I; type: binding; settings: 25° C.
Experimental: (§1) Binding of four IL-1R-I binding fusion proteins to human and cynomolgus IL-1R-I was analyzed using BLI. The Fc fused IL-1R-I binding Z variants denoted PS10536, PS10537, PS10534 and PS10535 (SEQ ID NO:1648, 1649, 1646, 1647) were loaded onto a Protein A sensor (Pall, ForteBio cat. no. 18-5010) at 0.5 μg/ml for 150 s in each cycle using an OctetRED96 instrument (Pall, ForteBio). Subsequently, these sensors were exposed to different and increasing concentrations of human IL-1R-I (R&D systems cat. no. 269-1R/CF) ranging from 0.15 to 5 nM or cynomolgus IL-1R-I (SEQ ID NO:1665) ranging from 2.5 to 80 nM. Association was recorded for 300 s and dissociation for 300 s (human) or 90 s (cynomolgus) and spectrograms were recorded and analyzed according to a 1:1 Langmuir model using global fit (Octet System Data Analysis 8.2 software, Pall, ForteBio). Each sensor was referenced to a sensor with the same ligand loaded onto it but exposed to buffer only. Following each association/dissociation cycle, all sensors were regenerated by three pulses of 10 mM glycine at pH 2.5 for 10 s each. All steps were carried out at 25° C. at a shaking speed of 1000 rpm and all dilutions of fusion proteins (Z-Fc fusion proteins) and analytes (human or cynomolgus IL-1R-1) were in 1×kinetics buffer (Pall, ForteBio).

[1] = In vivo pharmacokinetics of IL-1R-I binding fusion proteins in rats; set-up: species or system male Sprague-Dawley rats; settings: male rats
Experimental: The IL-1R-I binding fusion proteins PS10534, PS10535, PS10536, PS10537, PS10538 and PS10539 (see Table 22, SEQ ID NO:1646-1651) were evaluated in this study. All six test items were constituted as a solution in 25 mM sodium phosphate and 125 mM sodium chloride, pH 7.0.
The pharmacokinetic properties of the six fusion proteins were investigated in male Sprague-Dawley rats. For each test item, three rats were given an i.v. single dose of 15 mg/kg (2.5 ml/kg) injected in the lateral tail vein and another three rats were given a s.c. single dose of 30 mg/kg (5 ml/kg) injected in the neck region. Blood samples for serum preparation were collected pre dosing and at 5 and 20 min, 1, 4, 8, 24, 48, 72 and 96 hrs post i.v. dosing, or 20 min, 1, 4, 8, 24, 48, 72, 96 and 120 hrs post s.c. dosing.
Determination of fusion protein levels in rat serum samples was performed by enzyme-linked immunosorbent assay (ELISA). The ELISA assay employed the quantitative sandwich enzyme immunoassay technique.
In brief; a goat polyclonal anti-Z antibody recognizing the Z variant domain of the IL-1R-I binding fusion protein (produced in house, Affibody AB) was coated onto a microplate. Unbound polyclonal antibody was washed away and casein was added as blocking agent to reduce unspecific binding to the plastic surface. After removal of unbound casein by a second wash step, standards and samples were pipetted to the wells and any fusion protein present was bound to the immobilized antibody. After washing away any unbound substances, a HRP labeled Swine anti-rabbit antibody (Dako, cat. no. P0399) was added. Following a wash to remove any unbound anti-rabbit HRP reagent, a substrate solution was added to the wells and color developed in proportion to the amount of fusion protein bound in the initial step. The color development was stopped and the intensity of the color was measured.
The pharmacokinetic analysis was based on median serum concentration versus time data from each dose group. The observed maximum concentration (Cmax) and the time to maximum serum concentration (tmax) were taken directly from the bioanalytical data. Other pharmacokinetic parameters, i.e. clearance (CL), apparent clearance following s.c. administration (CL/F), apparent volume of distribution at steady-state (Vss), mean residence time (MRT) and terminal half-life (t1/2z), were estimated by non-compartmental analysis using Phoenix WinNonlin software version 6.3 (Pharsight Corp., USA). Estimation of the terminal slope following i.v. dosing was based on four data points, from 24 to 96 hrs. Estimation of the terminal slope following s.c. dosing was based on five data points, from 24 to 120 hrs. Calculation of the subcutaneous bioavailability (F) was performed using Microsoft Excel.

hIL-1R-I [2] = target: T1, hIL-1R-I; experiment: Biolayer interferometry (BLI) kinetic analysis of Z-Fc fusion proteins, human IL-1R-I; type: binding; settings: 25° C.
Experimental: as §1

TF-1 cells = experiment: In vitro IL-1β neutralization assay (TF-1 cell assay); type: cell-based; settings: His6-Z polypeptides, IL-1β inhibition in TF-1 cell assay, Table 20 (Example 9)
Experimental: The TF-1 cell line proliferates in response to many different cytokines including IL-1β. This cell line was used to assess the ability of primary IL-1R1 binders to inhibit IL-1β actions. TF-1 cells were maintained in RPM11640 with L-glutamine (Lonza) supplemented with 10% FCS (Gibco), Penicillin-Streptomycin (Lonza) and 2 ng/ml rhGM-CSF (R&D Systems). Prior to use, cells were washed twice in RPM11640 without rhGM-CSF. Cells were then counted and dispensed into 96 well flat bottomed plates at a density of 3×10^4 cells per well. In separate plates, serial dilutions of the inhibitory binders; His6-tagged IL-1R-I binding Z variants, with a concentration range of 400-0.1 nM, or the IL-1R-I binding protein Kineret (anakinra, Sobi), with a concentration range of 0.3-0.0003 nM, were incubated in the presence of 0.6 nM IL-1β (PeproTech). The pre-mixed complexes of the Z variant polypeptides and IL-13 were transferred to wells containing TF-1 cells. The cells were stimulated for 72 h at 37° C. in a humidified 5% CO2 atmosphere. During the last four hours of incubation, 19 μl of 2× diluted CCK-8 (Fluka, Sigma Aldrich), was added per well to determine the proliferative responses. The absorbance was measured at 450 nm using a microplate reader (Victor3, Perkin Elmer). The data on cell growth was assessed by non-linear regression to a four-parameter dose-response curve, and the half maximal inhibitory concentration (IC50) was determined using GraphPadPrism program.
(§2) His6-tagged IL-1R-I specific Z variants were tested for their inhibitory capacity in the TF-1 cell assay. The assay was run as described in Example 2. The data on cell growth was assessed by non-linear regression to a four-parameter dose-response curve, and IC50 values were determined using GraphPadPrism program. His6-tagged Z12967 was included for comparison.
as §2, with “Z12967, Z16065, Z16163 and Z18557 were” for “Z12967 was”

hIL-1R-I [3] = target: T1, hIL-1R-I; experiment: Biacore affinity/kinetic analysis of His6-tagged Z variants, human IL-1R-I; type: binding; settings: His6-Z polypeptides binding to human IL-1R-I, Biacore, Table 19; for Kd: read-out: KD
Experimental: Affinities (KD) for human and cynomolgus IL-1R-I were determined for His6-tagged Z variants using a Biacore 2000 instrument (GE Healthcare). hIL-1R-I or cIL-1R-I-His6 was immobilized on the carboxylated dextran layer in different flow cells of a CM5 chip (GE Healthcare, cat. no. BR100012). The immobilization was performed using amine coupling chemistry according to the manufacturer's protocol. Acetate pH 4.5 (GE Healthcare, cat. no. BR100350) was used for ligand dilution and HBS-EP (GE Healthcare, cat. no. BR100188) was used as running buffer. One flow cell surface on the chip was activated and deactivated for use as blank during analyte injections. In the kinetic experiment, HBS-EP was used as running buffer, the flow rate was 50 μl/min and the temperature was 25° C. The analytes, i.e. the Z variants, were each diluted in HBS-EP buffer to final concentrations of 40 nM and 10 nM, and were injected over the target chip surfaces for 2 min, followed by dissociation in running buffer for 8 min. Kinetic constants were calculated from the obtained sensorgrams using a 1:1 binding model, in the BiaEvaluation software 4.1 (GE Healthcare).
The kinetic constants (kon and koff) and affinities (KD) for human and cynomolgus IL-1R-I were determined for His6-tagged Z variants using a Biacore 2000 instrument (GE Healthcare). The experiment was run essentially as described in Example 2, using 100, 10 and 1 nM of the Z variants. The analyte injection time was 3 min followed by 15 min dissociation and 2×5 s glycine pH 3.0 (GE Healthcare, cat. no. BR100357), supplemented with 0.5 M NaCl, was used for regeneration of the surfaces between the cycles. Kinetic constants were calculated from the obtained sensorgrams of two or three concentrations of the respective Z variant, using a 1:1 binding model in the BiaEvaluation software 4.1 (GE Healthcare). His6-tagged Z12967 was included in the assay for comparison.
The kinetic constants (kon and koff) and affinities (KD) for human and cynomolgus IL-1R-I were determined for His6-tagged Z variants using a Biacore 2000 instrument (GE Healthcare). The experiment was run essentially as described in Example 5, using 48, 12, 3 and 0.75 nM of the Z variants. The analyte injection time was 3 min followed by 6 min dissociation and 2×5 s glycine pH 3.0, supplemented with 0.5 M NaCl, was used for regeneration of the surfaces between the cycles. Kinetic constants were calculated from the obtained sensorgrams of three or four concentrations of the respective Z variant, using a 1:1 binding model in the BiaEvaluation software 4.1 (GE Healthcare). His6-tagged Z12967 (SEQ ID NO:9), Z16065 (SEQ ID NO:268), Z16163 (SEQ ID NO:359) and Z18557 (SEQ ID NO:1205) were included in the assay for comparison.

[4] = Circular dichroism (CD) spectroscopy analysis, melting temperature and refolding; type: physicochemical; settings: His6-tagged Z variants, CD variable temperature measurement, Table 21
Experimental: Purified His6-tagged Z variants were diluted to 0.5 mg/ml in PBS. For each diluted Z variant, a CD spectrum at 250-195 nm was obtained at 20° C. In addition, a variable temperature measurement (VTM) was performed to determine the melting temperature (Tm). In the VTM, the absorbance was measured at 221 nm while the temperature was raised from 20 to 90° C., with a temperature slope of 5° C./min. A new CD spectrum was obtained at 20° C. after the heating procedure in order to study the refolding ability of the Z variants. The CD measurements were performed on a Jasco J-810 spectropolarimeter (Jasco Scandinavia AB) using a cell with an optical path length of 1 mm.
CD was analyzed for His6-tagged Z variants, as described in Example 2.

[5] = intravenous single dose 15 mg/kg
[6] = subcutaneous single dose 30 mg/kg

koff (hIL-1R-I [2]) [s⁻¹]	kon (hIL-1R-I [2]) [M⁻¹ s⁻¹]	IC50 (TF-1 cells) [pM]	koff (hIL-1R-I [3]) [s⁻¹]	kon (hIL-1R-I [3]) [M⁻¹ s⁻¹]	Kd (hIL-1R-I [3]) [pM]	Molecule	koff (cynomolgus IL-1R-I) [s⁻¹]	kon (cynomolgus IL-1R-I) [M⁻¹ s⁻¹]	MRT [1, 5] [h]	Vss [1, 5] [L/kg]	t1/2z [1, 5] [h]	Cmax [1, 6] [nM]	F [1, 6] [%]	MRT [1, 6] [h]	Vz/F [1, 6] [L/kg]	t1/2z [1, 6] [h]	tmax [1, 6] [h]	Melting temperatures (Tm) [4] [°C]
0.000642	404000	–	–	–	–	PS10534: Fc fused IL-1R-I binding Z variant (protein, Engineered IL-1R-I binding polypeptide) AEAKYAKEIEEVQMEIFYLPNLTRRQYTAFIRKLLDDPSQSSELLSEAKKLSESQAPKASGGGGSGGGGS[sequence of human IgG1 Fc omitted]	0.0299	1.08e+06	56.4	0.159	48.7	828	41.5	72.4	0.445	45.3	24	–
–	–	500	0.008	5.8e+07	140	Z18834 (protein) AQHDEALEVDAKYAKEVEEIQMEIFGLPNLTRRQYTAFIRKLLDDPSQSSELLSEAKKLNDSQAPKVDYVLAEAKVLANRELDKYGVSDYYKNLINNAKTVEGVKALIDEILAALPYVPG	–	–	–	–	–	–	–	–	–	–	–	58

Continued, molecule first:

Molecule	koff (hIL-1R-I [2]) [s⁻¹]	kon (hIL-1R-I [2]) [M⁻¹ s⁻¹]	IC50 (TF-1 cells) [pM]	koff (hIL-1R-I [3]) [s⁻¹]	kon (hIL-1R-I [3]) [M⁻¹ s⁻¹]	Kd (hIL-1R-I [3]) [pM]	koff (cynomolgus IL-1R-I) [s⁻¹]	kon (cynomolgus IL-1R-I) [M⁻¹ s⁻¹]	MRT [1, 5] [h]	Vss [1, 5] [L/kg]	t1/2z [1, 5] [h]	Cmax [1, 6] [nM]	F [1, 6] [%]	MRT [1, 6] [h]	Vz/F [1, 6] [L/kg]	t1/2z [1, 6] [h]	tmax [1, 6] [h]	Melting temperatures (Tm) [4] [°C]
Z18832 (protein) AQHDEALEVDAKYAKEVEEIQMEIFHLPNLTRRQYTAFIRKLLDDPSQSSELLSEAKKLNDSQAPKVDYVLAEAKVLANRELDKYGVSDYYKNLINNAKTVEGVKALIDEILAALPYVPG	–	–	500	0.007	5.9e+07	120	–	–	–	–	–	–	–	–	–	–	–	58
Z15934 (protein) AQHDEALEVDAKYAKEVTVAQMEIFALPNLTRKQYTAFIRKLLDDPSQSSELLSEAKKLNDSQAPKVDYVLAEAKVLANRELDKYGVSDYYKNLINNAKTVEGVKALIDEILAALPYVPG	–	–	6400	0.011	1.4e+07	750	–	–	–	–	–	–	–	–	–	–	–	62
